Here are results for 24 compounds from ChEMBL document CHEMBL4888484, “Replenishing the malaria drug discovery pipeline: Screening and hit evaluation of the MMV Hit Generation Library 1 (HGL1) against asexual blood stage Plasmodium falciparum ,using a nano luciferase reporter read-out” (2022).

Structures are written as SMILES. The whole screen tested about 150,000 compounds, of which about 540 (0.36%) showed an effect of 50% or more. This is one part of the list.

This experiment concerns Plasmodium falciparum. Kind of experiment: Primary screen in NF54 nanoGlo assay, in single point, at 2uM, 72h; a lower Z score goes with more inhibition. Conditions: timepoint 72 hour. In kind it is functional, Erythrocyte.
Broadly, the % Inhibition is the relative decrease from the control value, in per cent. Regarding `COC(=O)c1ccc(C)c(S(=O)(=O)Oc2ccc(N3CCN(C(C)=O)CC3)cc2)c1`, the “% Inhibition” value was found to be 4% and the Z score was -0.54. For `COc1cccc2c1C(C(=O)N1C[C@H](F)C[C@H]1C(=O)N1CCOCC1)CC2` (some centres not stated) the same measures were -3% and 0.62. Consider `CCN1C(=O)[C@@H]2CN(Cc3cnc(-c4ccccc4)o3)CCN2C1=O`, for which the “% Inhibition” value is on record as -2% and the Z score was 0.5. Consider `Cn1nccc1Cc1noc(C2CCC2)n1`, for which the “% Inhibition” value was -8% and the Z score turned out to be 0.93. As to `CCn1ccnc1CN1CCC[C@H](CCC(=O)N2CCN(c3ccccn3)CC2)C1`, the “% Inhibition” value is -11% and the Z score amounted to 1.65. For `COc1ccc(CCc2nc3nccc(-c4cccnc4)n3n2)cc1OC`, the “% Inhibition” value was 2% and the Z score is -0.41. Consider `COc1ccc(CC(=O)N2CCC[C@H]2c2ccncc2)cc1OC`, for which the Z score came out at 0.93.

Take `CCc1ccc(C2CC(C)CCN2C(=O)Cc2cnn(C)c2)o1` (configuration not stated): the “% Inhibition” value is reported as -4% and the Z score is given as 0.52. As to `O=C(NCc1cc(C2CC2)[nH]n1)c1cncc(F)c1`, the “% Inhibition” value was found to be 0% and the Z score came to 0. For `O=C(CN1C(=O)c2ccccc2Oc2ncccc21)N1CCOCC1` the same measures were 8% and -1.2. For `C[C@]1(O)CCN(Cc2ccc3c4c(cccc24)C(=O)OC3)C[C@@H]1O` the same measures were -1% and 0.17. Taken in the same sequence, the figures for `CC[C@H](Nc1ccc2c(c1)CCN2C(C)=O)C(=O)Nc1cc(C)on1` were 4% and -0.58. As to `CCN(CC)[C@@]1(c2nnnn2C2CCCC2)CCN(C(=O)c2cc(C)on2)C1`, the “% Inhibition” value is -2% and the Z score was determined as 0.26.

With `Cc1nccn1CCn1ncc(N2CCc3ccccc3C2)cc1=O`, the “% Inhibition” value is listed as -17% and the Z score is 3.28.

On to `Cc1ccc(S(=O)(=O)c2ncccc2CNCc2cccnc2)cc1`, for which the “% Inhibition” value is -9% and the Z score came to 0.83. With `O=C(NC1CCCC1)C1C2CCC(C2)N1C(=O)NC1CCCCC1` (configuration not stated), the “% Inhibition” value was -11% and the Z score is on record as 1.91. Consider `CN1CCN(C(=O)Cn2cc(NC(=O)c3occ4c3CCOC4)cn2)CC1`, for which the “% Inhibition” value stood at 0% and the Z score is on record as -0.07. Turning to `CCCN1C(=O)N(c2ccccc2C)C(=O)[C@@H]1CC`, the “% Inhibition” value is on record as -14% and the Z score is reported as 1.8. With `CCN(CCO)C(=O)c1ccc(C#N)cc1C`, the “% Inhibition” value was -8% and the Z score came out at 1.03. `Cc1nc(C)c(S(=O)(=O)N2CCN(C)c3cc(Cl)ccc32)s1`: the “% Inhibition” value is 4% and the Z score is recorded as -0.58.

For `CN(Cc1ncc[nH]1)C(=O)C1CC=CCC1C(=O)N1CCOCC1` (configuration not stated), the “% Inhibition” value is on record as -3% and the Z score is listed as 0.38. Consider `O=C(c1ccccc1)N1CCC([C@H]2c3nccn3CCCN2Cc2cccnc2)CC1`, for which the “% Inhibition” value is on record as -2% and the Z score was found to be 0.34. As to `C=CCOC[C@@H](O)CN(Cc1ccco1)Cc1ccc(C)o1`, the “% Inhibition” value is reported as -1% and the Z score is reported as 0.1. As to `COc1ccc2cc(C(=O)N3CCN(c4cc(=O)n(C)c(=O)n4C)CC3)[nH]c2c1`, the “% Inhibition” value was -4% and the Z score is listed as 0.68.
